Laboratory results as given in the supplement of paper PMC7726561.
The full ranking holds about 1,400 sequences; the median of “thermal melting temperature (Tm) of peptide-HLA complex” is about 60, and the lowest 2% start at about 45. The list shows a part of the results.

B1: unnamed (peptide)
chain: APHPVYYPAL
B2: unnamed (peptide)
chain: NVRIATTAL
B3: unnamed (peptide)
chain: VPRLPGETLI
B4: unnamed (peptide)
chain: SPYPRVKVDF
B5: unnamed (peptide)
chain: APYERRAMEL
B6: unnamed (peptide)
chain: TPRATLITF
B7: unnamed (peptide)
chain: NPRATFSEF
B8: unnamed (peptide)
chain: GPHISYPPL
B9: unnamed (peptide)
chain: TPDPQRVPL
B10: unnamed (peptide)
chain: SPTDPFNRQTL
B11: unnamed (peptide)
chain: SPAPPLLHV
B12: unnamed (peptide)
chain: GPRSPSVIFM
B13: unnamed (peptide)
chain: TPFPFRTGL
B14: unnamed (peptide)
chain: SPRTLNLSQL
B15: unnamed (peptide)
chain: NPRSVTLLI
B16: unnamed (peptide)
chain: KPMEGWIAV
B17: unnamed (peptide)
chain: LPQPVPLSV
B18: unnamed (peptide)
chain: IPMKLAGL
B19: unnamed (peptide)
chain: RPASGSPFQL
B20: unnamed (peptide)
chain: VARPLSTAL
B21: unnamed (peptide)
chain: KPVNRISL
B22: unnamed (peptide)
chain: TPYNYPVPV
B23: unnamed (peptide)
chain: APMGIRLSP
B24: unnamed (peptide)
chain: LPELKSTL
B25: unnamed (peptide)
chain: APSDLRTIQTF
B26: unnamed (peptide)
chain: TPRNPNSAILL
B27: unnamed (peptide)
chain: APRAALVFAL
B28: unnamed (peptide)
chain: LPSWGRAEL
B29: unnamed (peptide)
chain: APTPIQALTL
B30: unnamed (peptide)
chain: APKSQIVML
B31: unnamed (peptide)
chain: GSISRIYL
B32: unnamed (peptide)
chain: KPLGPTAAF
B33: unnamed (peptide)
chain: MPDVGRSMQQL
B34: unnamed (peptide)
chain: IPRSILMTTF
B35: unnamed (peptide)
chain: HPRSPTPTL
B36: unnamed (peptide)
chain: NPFLRQELL

Each sequence was assayed against HLA-B*07:02 (assay: thermal melting temperature (Tm) of peptide-HLA complex; higher = more thermostable pHLA complex). Settings: C1R-B*07:02.
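Note: cell lysates heated 10 min at 37–73 °C, remaining pHLA pulled down with pan-class I antibody, peptides quantified by DIA-MS versus 37 °C, Tm where half the complex is lost.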

Sequence	thermal melting temperature
B1	61.6 °C
B2	60 °C
B3	63.1 °C
B4	61.6 °C
B5	54.2 °C
B6	62.2 °C
B7	59.6 °C
B8	62.2 °C
B9	48.2 °C
B10	58.2 °C
B11	60.8 °C
B12	62.2 °C
B13	61.3 °C
B14	59.5 °C
B15	60.8 °C
B16	60.7 °C
B17	62.6 °C
B18	60.3 °C

Sequence	thermal melting temperature
B19	52.6 °C
B20	59.6 °C
B21	57.3 °C
B22	62.4 °C
B23	60.3 °C
B24	60.8 °C
B25	62.8 °C
B26	59.3 °C
B27	63.2 °C
B28	62.8 °C
B29	60.5 °C
B30	61.9 °C
B31	41.4 °C
B32	61.1 °C
B33	61.3 °C
B34	60.2 °C
B35	58.2 °C
B36	61.5 °C
